# Laboratory results taken from PubChem BioAssay (Tox21).
# Values joined by “and” are separate entries in the source; they are usually repeats but may differ in a detail not shown here. Equal values may be shown once. Active and inactive are the calls of the source. Unless noted, the call rests on the fitted dose curve; in most records, active means well fitted curve in the direction sought with a large enough effect in the repeat runs; inconclusive means weak or mixed curves; inactive means no such curve, though single readings can be large; an effect the other way counts as inactive or inconclusive.
# Legend:
# [1] = qHTS assay for identifying genotoxic compounds that show differential cytotoxicity against isogenic chicken DT40 cell lines with known DNA damage response pathways - wild type cell line (AID 743012); details: DT40 wild type chicken cells viability, CellTiter-Glo, 40 h; activity change, negative = cytotoxicity: at 68.4 µM (top of the series) unless noted; further: nearly all actives have a fitted effect of over 60% in size; further: potency means the concentration at half of the fitted maximal effect; on activity change, negative = cytotoxicity: on the % scale 0 is the no-effect control and ±100 the full control effect
# Method in brief: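 CellTiter-Glo luminescence readout of viability in wild type DT40 cells after 40 h compound exposure at 37 C/5% CO2; 300 cells/well; reagent incubated 30 min at room temperature before reading.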
# [2] = qHTS assay for identifying genotoxic compounds that show differential cytotoxicity against isogenic chicken DT40 cell lines with known DNA damage response pathways - Rev3 mutant cell line (AID 743014); details: chicken DT40 Rev3-/- viability, CellTiter-Glo, 40 h; activity, negative = cytotoxicity: at 68.4 µM (top of the series); further: nearly all actives have a fitted effect of over 55% in size; further: potency means the concentration at half of the fitted maximal effect
# [3] = qHTS assay for identifying genotoxic compounds that show differential cytotoxicity against isogenic chicken DT40 cell lines with known DNA damage response pathways - Rad54/Ku70 mutant cell line (AID 743015); details: DT40 Rad54/Ku70 mutant viability, CellTiter-Glo, 40 h; activity change, negative = cytotoxicity: at 66.8 µM (top of the series); further: potency means the concentration at half of the fitted maximal effect; nearly all actives have a fitted effect of over 60% in size
# [4] = molecular target: Androgen receptor (Homo sapiens) (UniProt P10275); assay: qHTS assay to identify small molecule agonists of the androgen receptor (AR) signaling pathway (AID 743036; active means well fitted activation curve with a large enough effect in the signal ratio in the repeat runs, with a control signal flat, not every such curve was filed as active; inconclusive means weak or mixed curves, or effect the other way; inactive means no such curve, though single readings can be large or run the other way; the % refers to the signal ratio; further: on the % scale 0 is the no-effect control and ±100 the full control effect); details: HEK293 AR-UAS-bla GripTite, beta-lactamase FRET ratio, 16 h; activation: at 62.4 µM (top of the series) unless noted
# Sequence of UniProt P10275 (P10275 whole entry, looked up): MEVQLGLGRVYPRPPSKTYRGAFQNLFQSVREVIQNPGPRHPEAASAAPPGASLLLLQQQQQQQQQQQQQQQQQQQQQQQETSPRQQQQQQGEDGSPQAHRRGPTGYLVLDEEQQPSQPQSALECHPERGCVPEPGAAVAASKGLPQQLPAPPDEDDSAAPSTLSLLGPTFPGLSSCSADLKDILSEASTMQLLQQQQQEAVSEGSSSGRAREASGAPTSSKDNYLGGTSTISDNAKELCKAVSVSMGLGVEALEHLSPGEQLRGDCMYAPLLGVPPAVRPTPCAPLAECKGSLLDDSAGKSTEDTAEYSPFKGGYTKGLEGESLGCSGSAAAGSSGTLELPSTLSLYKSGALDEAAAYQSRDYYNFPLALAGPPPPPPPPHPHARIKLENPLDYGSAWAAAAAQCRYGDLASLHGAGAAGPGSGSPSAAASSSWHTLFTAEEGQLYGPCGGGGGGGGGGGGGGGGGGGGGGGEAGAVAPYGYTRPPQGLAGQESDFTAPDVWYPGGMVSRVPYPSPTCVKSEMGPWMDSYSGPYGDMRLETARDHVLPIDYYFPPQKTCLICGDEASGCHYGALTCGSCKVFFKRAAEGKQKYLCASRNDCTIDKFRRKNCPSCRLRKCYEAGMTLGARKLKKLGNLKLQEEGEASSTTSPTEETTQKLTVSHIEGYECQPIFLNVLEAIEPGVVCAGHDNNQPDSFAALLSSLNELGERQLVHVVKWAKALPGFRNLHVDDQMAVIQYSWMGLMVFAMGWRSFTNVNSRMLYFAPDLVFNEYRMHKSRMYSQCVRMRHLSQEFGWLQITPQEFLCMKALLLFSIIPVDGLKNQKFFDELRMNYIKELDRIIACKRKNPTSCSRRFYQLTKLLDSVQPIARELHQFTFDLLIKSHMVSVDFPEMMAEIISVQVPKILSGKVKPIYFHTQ
# Method in brief: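 AR-bla HEK293 cells, 2,000/well; 4 h preincubation 37C/5% CO2; compound (DMSO) 16 h at 37C; LiveBLAzer B/G FRET substrate 2 h RT; fluorescence intensity read-out.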
# [5] = molecular target: Androgen receptor (Homo sapiens) (UniProt P10275); assay: qHTS assay to identify small molecule antagonists of the androgen receptor (AR) signaling pathway using the MDA cell line (AID 743042; further: on the % scale 0 is the no-effect control and ±100 the full control effect; nearly all actives have a fitted effect of over 55% in size)
# Method in brief: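 Antagonist mode: compounds plus R1881 agonist added to MDA-kb2 AR-luc cells, incubated 16 h at 37C. Luciferase reporter luminescence quantified, with multiplexed CellTiter-Fluor readout for cell viability.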
# [6] = qHTS assay to identify small molecule antagonists of the thyroid receptor (TR) signaling pathway - cell viability counter screen (AID 743064); details: GH3.TRE-Luc viability, CellTiter-Fluor, 24 h; activity change, negative = cytotoxic: at 70.3 µM (top of the series) unless noted; further: potency means the concentration at half of the fitted maximal effect; nearly all actives have a fitted effect of over 50% in size
# Method in brief: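 GH3.TRE-Luc cells, 4 h pre-plating; cpd + T3 1 nM final; 37 °C 23.5 h; CellTiter-Fluor 30 min; fluorescence read.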
# [7] = system: thyroid hormone receptor (rat, GH3 cells); assay: qHTS assay to identify small molecule agonists of the thyroid receptor (TR) signaling pathway (AID 743066; calls by dose curve; further: on the % scale 0 is the no-effect control and ±100 the full control effect); details: GH3.TRE-Luc cells, TR agonist luciferase, 24 h; activation: at 83.9 µM (top of the series) unless noted
# [8] = qHTS assay to identify small molecule antagonists of the estrogen receptor alpha (ER-alpha) signaling pathway - cell viability counter screen (AID 743074; calls by dose curve; further: nearly all actives have a fitted effect of over 45% in size; further: potency means the concentration at half of the fitted maximal effect)
# [9] = qHTS assay to identify small molecule antagonists of the androgen receptor (AR) signaling pathway using the MDA cell line - cell viability counter screen (AID 743041; further: on the % scale 0 is the no-effect control and ±100 the full control effect; nearly all actives have a fitted effect of over 45% in size); details: MDA-kb2 viability, CellTiter-Fluor, 16 h, cells co-treated with R1881 androgen agonist; viability change, negative = cytotoxic: at 70.3 µM (top of the series) unless noted
# Method in brief: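 Using the breast carcinoma line MDA-kb2 AR-luc, test chemicals were co-incubated with R1881 for 16 h; CellTiter-Fluor reagent, added at 15.5 h, provided a fluorescence measure of live cells.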
# [10] = qHTS assay to identify small molecule antagonists of the thyroid receptor (TR) signaling pathway (AID 743065); further: potency means the concentration at half of the fitted maximal effect; nearly all actives have a fitted effect of over 55% in size
# Method in brief: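 Antagonism measured as loss of luciferase signal in GH3 cells stably carrying a TRE-luciferase reporter, co-treated with compound and T3 (1 nM final) for 23.5 h at 37 C. Viability was read in the same well by CellTiter-Fluor.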
# [11] = molecular target: Estrogen receptor (Homo sapiens) (UniProt P03372); assay: qHTS assay to identify small molecule antagonists of the estrogen receptor alpha (ER-alpha) signaling pathway (AID 743069; active means well fitted curve in the direction sought with a large enough effect in the signal ratio in the repeat runs, not every such curve was filed as active; inconclusive means weak or mixed curves, or effect the other way; inactive means no such curve, though single readings can be large or run the other way; the % refers to the signal ratio; further: potency means the concentration at half of the fitted maximal effect); details: HEK293 ER-alpha-UAS-bla, beta-lactamase ratio, antagonist mode; activity, negative = inhibition: at 69.4 µM (top of the series) unless noted
# Sequence of UniProt P03372 (P03372 whole entry, looked up): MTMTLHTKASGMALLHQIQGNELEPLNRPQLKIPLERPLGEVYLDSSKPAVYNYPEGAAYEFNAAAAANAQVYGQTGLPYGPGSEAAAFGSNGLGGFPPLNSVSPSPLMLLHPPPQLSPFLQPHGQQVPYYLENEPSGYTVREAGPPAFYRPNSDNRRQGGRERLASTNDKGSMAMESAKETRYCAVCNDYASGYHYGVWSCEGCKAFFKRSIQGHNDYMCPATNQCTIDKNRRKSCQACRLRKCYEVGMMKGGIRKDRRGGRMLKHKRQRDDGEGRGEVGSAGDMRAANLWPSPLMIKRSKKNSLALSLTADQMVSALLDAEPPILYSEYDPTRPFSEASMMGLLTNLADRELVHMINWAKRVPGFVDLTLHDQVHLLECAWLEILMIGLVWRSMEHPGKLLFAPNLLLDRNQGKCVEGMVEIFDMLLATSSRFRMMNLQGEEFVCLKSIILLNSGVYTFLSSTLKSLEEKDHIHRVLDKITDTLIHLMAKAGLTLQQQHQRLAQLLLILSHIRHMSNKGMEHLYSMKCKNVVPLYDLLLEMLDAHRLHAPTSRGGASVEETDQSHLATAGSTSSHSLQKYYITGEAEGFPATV
# Method in brief: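 Fluorescence intensity from a beta-lactamase FRET substrate served as the read-out. Cells: HEK293 with stably integrated ER-alpha-UAS-bla reporter. Agonist 17beta-estradiol was co-added with compounds; incubation 18 hr at 37C, substrate 2 hr at room temperature.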
# [12] = molecular target: Estrogen receptor (Homo sapiens) (UniProt P03372); assay: qHTS assay to identify small molecule agonists of the estrogen receptor alpha (ER-alpha) signaling pathway (AID 743075; calls by dose curve; further: on the % scale 0 is the no-effect control and ±100 the full control effect)
# [13] = molecular target: Estrogen receptor (Homo sapiens) (UniProt P03372); assay: qHTS assay to identify small molecule agonists of the estrogen receptor alpha (ER-alpha) signaling pathway using the BG1 cell line (AID 743079); details: BG1Luc4E2 cells, ERE-luciferase agonist, 22 h; activation: at 70.3 µM (top of the series) unless noted; further: potency means the concentration at half of the fitted maximal effect; nearly all actives have a fitted effect of over 20% in size
# [14] = qHTS assay to identify small molecule antagonists of the estrogen receptor alpha (ER-alpha) signaling pathway using the BG1 cell line (AID 743080; calls by dose curve;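 further: BG1 cells stimulated with 17beta-estradiol alongside compound; potency means the concentration at half of the fitted maximal effect; nearly all actives have a fitted effect of over 25% in size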); details: BG1Luc4E2 ERE-luciferase antagonist mode, luminescence; activity change, negative = inhibition: at 70.3 µM (top of the series) unless noted
# Method in brief: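 After 5 days in phenol-red-free 10% charcoal-stripped FBS medium, BG1-Luc-4E2 cells were seeded, left 24 h at 37 C, co-treated with compounds and 17beta-estradiol for 21.5 h, then assayed for viability and luciferase.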
# [15] = qHTS assay to identify small molecule antagonists of the estrogen receptor alpha (ER-alpha) signaling pathway using the BG1 cell line - cell viability counter screen (AID 743081); details: BG1Luc4E2 viability, CellTiter-Fluor, 22 h; activity change, negative = cytotoxicity: at 70.3 µM (top of the series) unless noted;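 further: compound given together with 17beta-estradiol as the ER stimulus; potency means the concentration at half of the fitted maximal effect; nearly all actives have a fitted effect of over 45% in size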
# Tags describe the fitted curve by direction and shape or compound fluorescence and quenching.
smiles,measurement,setting,value
CC(Oc1cc(Cl)ccc1Cl)C(=O)O (configuration not stated),Potency,[1],inactive
same,Potency,[2],inactive
same,Potency,[3],"inconclusive: 48.6 µM [cytotoxic, partial curve]"
same,activation,[4],inconclusive: -12.7%
same,Potency,[5],inactive
C[C@@H](C1=C(CCN(C)C)Cc2ccccc21)c1ccccn1,Potency,[1],"inconclusive: 33.5 µM [cytotoxic, single point]"
same,Potency,[2],inconclusive: 29.8 µM [cytotoxic]
same,Potency,[3],"inconclusive: 33.5 µM [cytotoxic, single point]"
same,Potency,[6],active: 29.8 µM
same,Potency,[7],inactive
same,Potency,[8],inactive
c1ccc(Nc2ccccc2)cc1,Potency,[1],"inconclusive: 43.2 µM [rising, partial curve]"
same,Potency,[2],"inconclusive: 68.5 µM [cytotoxic] and inconclusive: 68.6 µM [cytotoxic, single point]"
same,Potency,[3],"inconclusive: 68.6 µM [cytotoxic, single point]"
same,Potency,[9],inactive
same,Potency,[6],"inconclusive: 68.6 µM [cytotoxic, single point]"
same,Potency,[8],"inconclusive: 15.5 µM [cytotoxic, partial curve]"
O=C(CC(=O)C(F)(F)F)c1ccccc1,Potency,[1],inactive
same,Potency,[2],"inconclusive: 31.1 µM [cytotoxic, partial curve]"
same,Potency,[3],"inconclusive: 43.9 µM [cytotoxic, partial curve, poor fit]"
same,Potency,[6],"inconclusive: 69.6 µM [cytotoxic, single point]"
same,Potency,[10],"inconclusive: 69.6 µM [inhibitor, single point]"
same,Potency,[11],active: 28 µM [inconclusive]
same,Potency,[12],inactive
same,Potency,[13],active: 19.6 µM
same,Potency,[14],"inconclusive: 69.6 µM [falling, single point]"
same,Potency,[15],"inconclusive: 62 µM [cytotoxic, partial curve, poor fit]"
